Results as given in the supplement of paper PMC3334620.
Over roughly 33,000 sequences, “E-score (-0.5 to 0.5)” has its median near -0.016; the highest 2% begin near 0.32. This is one part of the list.

What follows are sequences tested against T1, Stp1 (UniProt B3LFK1) (assay: PBM E-score (8-mer binding enrichment) (E-score (-0.5 to 0.5)); higher = stronger / more preferred TF binding; most listed sequences are background and not binding sites). Conditions: protein concentration: 200 nM; construct: GST-full length.
T1 sequence: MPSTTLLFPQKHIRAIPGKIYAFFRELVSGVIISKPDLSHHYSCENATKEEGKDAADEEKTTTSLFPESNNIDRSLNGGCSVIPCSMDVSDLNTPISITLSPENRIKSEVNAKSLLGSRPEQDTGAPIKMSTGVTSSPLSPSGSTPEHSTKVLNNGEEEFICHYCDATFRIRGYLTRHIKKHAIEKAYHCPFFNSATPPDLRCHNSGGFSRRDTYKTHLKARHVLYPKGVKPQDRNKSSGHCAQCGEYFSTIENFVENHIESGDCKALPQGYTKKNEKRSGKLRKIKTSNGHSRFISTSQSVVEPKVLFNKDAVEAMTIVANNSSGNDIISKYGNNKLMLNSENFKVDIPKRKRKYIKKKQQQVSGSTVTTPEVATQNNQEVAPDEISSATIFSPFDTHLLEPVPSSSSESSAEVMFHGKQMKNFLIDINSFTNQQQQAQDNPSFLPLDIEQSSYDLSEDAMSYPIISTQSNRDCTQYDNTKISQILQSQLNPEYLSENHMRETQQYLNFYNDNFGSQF
In short: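 Using PURExpress in vitro transcription/translation, GST-tagged yeast transcription factors were made in full-length or DNA-binding-domain form. These were applied at about 100-200 nM to double-stranded universal all-10-mer Agilent arrays, and bound protein was detected with fluorescent anti-GST. Scans were normalised with masliner before the Universal PBM Analysis Suite assigned E-scores to ungapped eight-base words pooled with their reverse complements.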

Sequence	PBM E-score
GGGCAACA	0.0862
ATTCAAGG	-0.127
AACTGAGA	0.115
GATGATAA	0.0557
GTAGCACA	-0.0292
GAGTGTAC	-0.0451
ACCAATCC	-0.0607
CCTTGAAC	-0.0566
GACACTGA	-0.0306
AAACTGGT	-0.0925
AGCTGGAT	-0.146
CTTATACA	0.182
CTGATTTA	0.137
ACAAGGCC	-0.026
CTCAAATA	0.176
GGTAAGAC	-0.108
GATCATCC	-0.201
CCCGCACC	-0.149
ACAATTAG	0.049
AACCGGAT	0.0305
ATGTTCCG	-0.00592
GGGGTTAA	-0.289
CGGACGGA	-0.0178
AGTGACGA	-0.00928
AGAGACAT	-0.187

Sequence	PBM E-score
CACGTCCG	-0.0661
AGAGTTTA	0.21
AGGTTTAA	-0.0142
GAGGGAGC	-0.23
CCGGCGAG	0.0395
AAAACGAG	0.135
CGTCAGTA	-0.11
ACTACAGA	0.0159
ACTGCTTG	-0.229
ATCCCCTG	-0.269
TGATATAA	-0.0951
TCCTTAGA	-0.239
AGACCTGA	-0.196
CACGTCCA	-0.108
ATTAGTTA	0.209
CAGCCGAC	-0.0459
ATGCTGAA	-0.132
AAGCCATC	0.159
ATCGCGCA	-0.0273
GAACACAA	-0.00776
GCCTCTCC	0.0401
AATATTAG	0.134
GTCATCAC	-0.0223
ACAGTAGG	0.0244
AGCGCACG	0.0865

Sequence	PBM E-score
AGGCGTGC	0.179
TAGGGAGA	-0.19
ATTCAGTG	-0.0101
AGACTATC	0.0712
GCCTCTTA	0.29
CTCTCAAC	-0.0585
GTAACAAA	0.219
CACTGACC	-0.318
AGTTCGAA	0.196
CTTCGGTA	-0.157
CGTGAACC	-0.19
AACACAGG	-0.16
AGAGGATG	-0.251
ACCTCACG	-0.0143
GGTATCGA	0.0389
CTAATGCC	0.221
ACCGTATC	0.139
CATATAAG	0.118
TCAGAGAA	-0.0777
AGACAAAT	0.0977
CTTCGCTA	-0.0729
CGATTACC	-0.0519
AGGCTAAG	-0.0187
ATTTTCCA	0.149
CGACAACA	0.127

Sequence	PBM E-score
GGTCGCAC	-0.0736
ACTTCCAT	-0.141
GGGTCCTA	-0.267
CATTGACC	-0.00477
CCACTAGG	-0.182
AATACCGC	0.0472
CTTCATAA	0.249
ACGCCTTA	0.294
CCACGGAA	0.198
GAAGTCGC	0.0115
GTATCCGA	0.0538
TGCCCGAA	-0.0659
GAGAAGCC	-0.0953
GAGCTACC	-0.141
CCAATAAG	0.124
GCTGTGCC	0.182
AACTTATT	0.111
AACGGTTA	-0.0803
ACACTAGC	-0.0227
GCCAGCGA	-0.147
AATAAGTC	-0.106
AGACCACT	-0.184
CCATCAAC	-0.0151
ATGGGGCC	-0.229
AACAGAGA	-0.0939

Sequence	PBM E-score
CTATGTTC	-0.0988
CAATGAAG	0.0392
AATAGTAT	0.168
CCGGCTCG	-0.0179
CGACGAGA	-0.152
CATGAAAA	0.092
GGGAACCC	-0.208
CACTTCGC	0.0681
GCCTGTAC	0.114
AAATACAA	0.257
CGGGGGTC	-0.439
AAGTATCC	-0.0783
AACTGTAG	0.0446
CGGACACG	0.167
CACAACCA	0.187
AGATTTGG	-0.159
CCGACTCG	-0.12
TACATCAA	-0.00825
AAGCGGCG	0.458
AATTCTGC	0.135
GAGTGGGC	0.004
CTATTGCC	0.0651
GCAGAGCC	0.0995
AACACTGA	0.121
CCGAAACC	-0.227

Sequence	PBM E-score
ACTCCATG	-0.0264
CACGCTAG	-0.309
GTAATCCA	0.0213
AACGGAAG	0.0111
CCGTTCAA	0.255
AGAATCAA	0.117
CGGCGTGC	0.316
AACTCATC	-0.0197
GGGCTAAC	-0.22
GTTGCCCA	0.0403
AGCTTGTG	-0.167
CTTGGCCC	-0.298
GGATCCCC	-0.178
CATCTGCA	0.126
GTGCTACA	-0.0512
CGCGAATC	0.215
ACCAAGAA	0.152
ATACTCCC	-0.0851
AAGTAGTA	-0.0615
ACGTGGAA	0.0021
AGGGAGAC	-0.133
CCTCTGGC	-0.192
TTCGAAAA	0.287
ATTTAGCA	0.0362
TAGCAGAA	0.123

Sequence	PBM E-score
AGGATGAG	0.0154
CCTTTGGA	-0.0836
ATTACTTC	-0.0579
ATGTCCCC	-0.348
CACTCACC	-0.107
AAGGCTCT	0.21
AGTCCCCC	-0.455
AGAAGAAT	-0.163
AGTCTCGG	-0.262
ATGGCATA	0.226
AGCCCATG	-0.0373
AGGATAGA	0.0673
AGATCCCC	-0.256
CCTAATCA	-0.0333
CTTATATC	0.199
CTCTTAAA	0.105
CGCCACTC	0.263
CAGATCAG	-0.0397
ATACTGCA	0.0487
ACTGGATC	-0.0855
CTATCCAC	-0.0379
ACACACGA	0.135
